This passage reports self-cleavage results from the RNAGym collection of RNA variant scans (doi:10.7554/elife.90254).

The source gives no read counts; variants with many changes may rest on few reads.

The chains are these.
B1: LINE1-mini (parent)
chain: GGCAGAGCUCAACACAGCGUGGCAAAGUGGCUGUGGCUAGACUGCC

This data set covers variants of B1. Put plainly: self-cleavage, relative activity (ratio to wild type); higher = more cleavage; in vitro, sequencing; the parent is a self-cleaving ribozyme.
As for AGCAGAGCUCAACACAGCGUGGCAAAGUGUCUGUGGCUAGAUUGCC [G1A G30U C42U], the self-cleavage stood at 0.05.
For GGCAGAGUGCAACACAGCGUGGCAAAGGGGCUGUGGCUAUACUGCC [C8U U9G U28G G40U], the self-cleavage was 0.03.
Take GGCCGAGCUCAACAUAGCGUGGCAAAGUGGCUGUGGCAAGACUGCC [A4C C15U U38A]: the self-cleavage is 0.03.
Then GGCAGAGCUCAACGCAGCGUGGCAAAGCGGCUGUGGCUAGACUGGU [A14G U28C C45G C46U], with 0.03; and GCUAGAGCUAAACACAGCAUGGCAAAGUGGCUUUGGCUAGACUGCU [G2C C3U C10A G19A G33U C46U], with 0.03; and GGCACAACUCAACACAGCGUUGCAAAGUGGCUGUGGCUAGAGUGCC [G5C G7A G21U C42G], with 0.12.
Then GGCUUAGCUCAACACAGCGUGGCAAAGUGGCUGUGGUUAGACUGCC [A4U G5U C37U], with 0.05; and GGCAGAGCUCAUCACAACGUGGCAAAUUGGCUGUGGCUAAACUGCC [A12U G17A G27U G40A], with 0.01.
In the case of GGCAAAGCUCAACACAGCGGAGCAAAGCGGCUGUGGCUAGAAUGCC [G5A U20G G21A U28C C42A] it was 0.02; in that of GGCAGAGCUCAACAAAGCAUAUCAAAGUGGCUGUGGCUAGACUGCC [C15A G19A G21A G22U], 0.3; in that of GGCAAAGCUCAACACAGCGUCGCAAAGUGGCUGUGGCUACACUGCC [G5A G21C G40C], 0.05.
For the variant AGAAGAGCUCAACACAGCGUUGCAAAGUGCCUGUGGCUAGACUGCC [G1A C3A G21U G30C], the self-cleavage was found to be 0.9.
Turning to GGCAGAGUUCGACACAGCGUUGCAAAGUGGCUGUGGCUAGACUGCC [C8U A11G G21U], the self-cleavage was found to be 0.01.
Then GGCACAGCUCGACACAGCGGUGCAAAGUGGCUGUGGCUAGAUUGCC [G5C A11G U20G G21U C42U], with 0.01.
Then GGCAGAGUACAACACAGCGUGGCAAAGCGGCUGUGGCUAGACUGCC [C8U U9A U28C], with 0.05.
In the case of GGAUGAGCUCGACACAGCGUGGAAAAGUGGCUUUGUCUAGACUCCC [C3A A4U A11G C23A G33U G36U G44C] it was 0.
GGCAGAGCUCAACACAGCGUGGCAAGGUCGCUGUGGCUAGAUUGCC [A26G G29C C42U]: the self-cleavage stood at 0.03.
In the case of GGCAGAGCUCAACACAGUGUGGCAAAAUGGCUGUGGCUUGACUGCC [C18U G27A A39U] it was 1.42; in that of GGCAGAACUCAGCAUAGGGUGGCAAAGUGGCUGUGGAUAGACUGCC [G7A A12G C15U C18G C37A], 0.18; in that of GCCAGAGCUCAACACAGCGUGGCACCGAGGCUGUGUAUAGACUGCC [G2C A25C A26C U28A G36U C37A], 0.05.
In the case of GGCAGAGCUCAGCACAGCGUGACAAAGCGGCUGUAGCUAGACUGCC [A12G G22A U28C G35A] it was 0.02.
Turning to UGCAGAGCUCAACCCAGCGUGGCAAAGUGGGUGUGGCUAGACUGCC [G1U A14C C31G], the self-cleavage was 0.02.
In the case of GUCAGAGCUCAACACAGCGUGGCAAAGUGGGUCUGGCUAGACUGCC [G2U C31G G33C] it was 0.03; in that of GGCAGAGCUCAGCACAGCGUGGCAAAGUGGCUGUGGCGAGACUGCU [A12G U38G C46U], 0.04; in that of GGCAGAGCUAAACACAGCGUGGCAAAGUGGCUGCGGCUGGACUGCC [C10A U34C A39G], 0.03.
Then UGCAGAGCUCAACACAGCGUGGCAAAGUGGCUGUGGCUAGGCUCCC [G1U A41G G44C], with 0.04; and GGGAGAACUAAACAAAGCGUGGCAGAGUGGCUGUGGCUAGACUGCC [C3G G7A C10A C15A A25G], with 0.03; and GGCAGAGCUCCACUCAGCGUGGCAAAGUGGCUGUGGCUAGACUGCA [A11C A14U C46A], with 0.06.
Then GUCAGAGCUCAGCACAGCGUGGCAAAGUGGCUGUUGCUAGACUUCC [G2U A12G G35U G44U], with 0.05; and GGCCAUGCUCAACACAGCAUGGCAAAGGGGCUGUGGCUAGACUGCU [A4C G5A A6U G19A U28G C46U], with 0.15.
On to GGAAGAGCUCUACACAGUGUGCCAAAGUGGCUGUGGCUAGACUGCC [C3A A11U C18U G22C], for which the self-cleavage is 0.06.
In the case of GGCAGAGCUCAACAGAGCGAGGCAAAGUGGCUGUGUCUAGACUGCC [C15G U20A G36U] it was 0.01; in that of CGCAGAGUUCAACACAGCGUGGCAAAGUGGCUGUGGCUAGACAGCC [G1C C8U U43A], 0; in that of GGCAGAGCUCAACAAAGCGUGGCAAAGUGGCUGUGGCUAGUCUUCC [C15A A41U G44U], 0.01.
In the case of GGCAGAGUUCAACACAGCGUGGCACAGUUGCUGUGGCUAGACUGCC [C8U A25C G29U] it was 0.71; in that of GGCAGAGCUCAACACAUCGUGGCAAAAUGGCUGUGGCCAGACUUCC [G17U G27A U38C G44U], 0.02.
In the case of GGCAGAGCUCAACACAGCGUGGCAAAGUGGCUGUGGCUAAUCUCCC [G40A A41U G44C] it was 0.09; in that of GGCAGAGCUCAACACAGCGUGGCAAGGUUGCUGUGGCUAGCCUGCC [A26G G29U A41C], 0.05; in that of GCCAGAGCUCAACACAGCGUAGCAAAGGGGCUGUGGCUAGACUGCC [G2C G21A U28G], 0.04.
In the case of GUAAGAGAUCCACACAGCGUGUCACAGUGGCUGUGGCUAGACUGUC [G2U C3A C8A A11C G22U A25C C45U], the self-cleavage turned out to be 0.01.
Then GGGAGACCUCAACACAGCGUGGCAAAGUGGAUGUGGCUAGAAUGCC [C3G G7C C31A C42A], with 0.01.
Then GGCAGAGCCCAACACAGCAUGGCAAAGUUGCUGUGGAUAGACUGCC [U9C G19A G29U C37A], with 0.03; and GGCAGAGCUCAGCACAGCGUGGUAAAUUGGCUGUGGCUAGACUGCC [A12G C23U G27U], with 0.01; and GUCAGAGCUCAACACAGCGUGACAAAGUGGCUAUGGCUAGACUGCC [G2U G22A G33A], with 0.02.
With GGCAGAGCUCAACACAGCGUGGUAAAGUGAUUGUGGCUAGACUGCC [C23U G30A C31U], the self-cleavage is 0.12.
Take GGCAGAGCUCAACACAGCGUGGCAAAGUUGCUGAGGGUAGACUGCC [G29U U34A C37G]: the self-cleavage came out at 0.03.
GUCAUAUCUCGACACAGCGUGGGAAAUUGGCUGUGGCGAGACUGCC [G2U G5U G7U A11G C23G G27U U38G]: the self-cleavage is 0.
With GGCAUAGCUCAACACAGCGUGGCAAAGUGGCUGUGGCUCGUCAGCA [G5U A39C A41U U43A C46A], the self-cleavage was 0.09.
Then GGCAACGCUCAACACAACGUGGCGAAGUGGAUGUGGAUAGACUGCC [G5A A6C G17A A24G C31A C37A], with 0.04.
In the case of GGCAGAGCCCAAUACAGCGUGGCAAAGUGGCUGUGGAUAGAAUGCC [U9C C13U C37A C42A] it was 0.01; in that of ACCAAAGCUCAACAGAACGUGGCAAAGUGGCUGUGGCUAGACUGCC [G1A G2C G5A C15G G17A], 0.47; in that of GGCAGAGCUCAACACAGGGUGGCAAAGUCGCUGCGGCUAGACUGCC [C18G G29C U34C], 0.02.
In the case of GGCAGAUCUCAACACAUCGUGGCAAAGCCGCUGUGGCUAAACUGCC [G7U G17U U28C G29C G40A] it was 0.16; in that of GGCAGCGCUCAGAACAGCGUGUCAAAGUGGCUGUGGCUAGACUGCC [A6C A12G C13A G22U], 0.09.
Turning to GGCAGAGCUCAACACAGCGUGGCAAAGUGGCUGUCGCUAGACGGAC [G35C U43G C45A], the self-cleavage was 0.05.
Regarding GGGAGAGCUCAACACAGCGUGGCAAAGUGGGUGUGGCUAGACUGGC [C3G C31G C45G], the self-cleavage was 0.17.
